Whole data set: some 4,500 sequences, median “median log2 fold change of GCK-ALFA target abundance (FLAG IP / Myc IP barcode read proportion)” near 0.078, cut for the lowest 2% near -0.6. The list shows a part of the results.

To fix the notation:
B1: GBRAP_52_6308 (protein)
chain: MEERAREAAERIVALVLAGDREGARALLREMAKNWSEEELLLIARALAELARTADEAELDAIAEAMLMMEDVLEEEGVDEEVIAEMLGIVTTAMYERELR
B2: GBRAP_160_4592 (protein)
chain: SMSLEELKKFIEEEFEEAKKLIEGQTAEERANIAAVTGGEIIMKLSENPNVSEELEDKVAEIFDELVAYILAHPDLTDEEIKKLIDEAEKKVKEALEKYF
B3: GBRAP_64_6484 (protein)
chain: MEEAEKLLEEAIAAAKAALKLLKDKNPEHAKKLKEAIKLLEEAKTADLETAEELLVEALDILNEVFKDPNISEEAKEEVALALDYVSAAIYEYSELIEEE
B4: GBRAP_160_4642 (protein)
chain: SPFVEELKKIVEEGTKIVLEYIDEGDLENALAAMRTMVGEVVMEMSEDPRFSDEDVDEMAKLGDKYVEKLEAAKGASKEELKKLVLEGAEELKKLIESFE
B5: GBRAP_195_5410 (protein)
chain: MKVVGRVLRIEESDTPEDILAKIEAIVAEVKEESNGDLVLVVARHPSVPEETVRAAVAEAAERYPEIKITVEIFDDISLPLETLEAFARMEVANEEEERE
B6: GBRAP_150_3924 (protein)
chain: SLEELKTILDTAIDLIEGIADGELSLVPHALKLVEAALEEAEELPEEVREPVKKLLTEVIKNLKKIAAGAPEEERKKLIEEALAKLKEALKIVEKLIEEE
B7: GBRAP_128_3450 (protein)
chain: SVEEAAAHAREVMERIKASDLETARELAEELAAWLATLSDEEAAAAMDTLEELAPELSAEKLEILADVLRAALPGLSPEKARLAADAEVTFLNEAEEKEE
B8: GBRAP_128_3348 (protein)
chain: LDEEVLAEAEELIEKILASDVETARELTKELVELIGKATPEEQEAIVALLEEALPKLSAEKLEAVADALREQRPKLSPYAANLVAGLEVEALNLAVEKEE
B9: GBRAP_11_2907 (protein)
chain: KKEELKKAAKLAEEAAKLLEKLKKEGEKDEKLWKEAEKALKELKKLVKKYLDESDAELAEEALKLLKEAKKDPKNAQQYLDEALATTRVLKGQILLAIEE
B10: GBRAP_52_6319 (protein)
chain: MKEEAKKLAEELVKLVKEGKLEEARKLAKEIAKTKSEEFLEEIAKVLAEMAKTANEEEIDAIVEAAEILADELIEEGYDEAFASDILARVAKAAYENSLK
B11: GBRAP_78_6694 (protein)
chain: EVEELLDEALKYLGEAARILAKMNTPEANDLLGKVIDVASTVEEAQFGEANLEELEEALKKLKEALEEAKKLPTPEAKEAAKYLEKAIEKLEKAIKLLKE
B12: GBRAP_184_5325 (protein)
chain: EVIRKVIEVETKEEAKEKLEELEKEALKSGKKYLVIIELKNPTKELIKTVAEKIKEMKEKGVDAEFIVVIDDPMDEELTDIAVEEFSKAGAKVVLALEDS
B13: GBRAP_160_4615 (protein)
chain: MEKIEELIKFVKEEFEEAKKMVEGETAEQRATIVDVTFGKIIIEADELEVVSDESLDEIDEIRDEVVATILANPDLTDEEVKELIEEAEKKVIEIIKKDE
B14: GBRAP_39_5665 (protein)
chain: EEEEENEDVVSYLEGVAAGYLYETGISLEEAFKRAKEILEKYAEEHPELKELIEELIELAEKKGEEAKLALIGVAVLIEEGTPKEEIKEMIEKVIKYFKK
B15: GBRAP_52_5845 (protein)
chain: MREEAEKLAKELVELAKEGKEEELEAKIKEIVETKSEEEVMLILEELARLAKEADPETAEVIWEVAEKLAEKALEAGFDEMELSLGLALVGAAVYEAQQR
B16: GBRAP_39_5632 (protein)
chain: EEEEELELLRSYAEADLAARQVKTGLPLEELFAELYAEARAAAADDPELLAAFERLVELAEKHGPEARERAAAIFAAYLAGLPREDVLRLARAEIEELEA
B17: GBRAP_52_6183 (protein)
chain: MREELRRRLEEIHELVKAGRLEEARALARELVESLSEEEARLLVEVAAELTRELPLEDLDAAFEMAEILAEAMVEAGFDEVLAEDLLAAVAAAMYEKELA
B18: GBRAP_80_6830 (protein)
chain: MEAELEAVLKALAEVDPEIAELVRRAVAIARELGVPLSALLRLTRAVLELAKVDKEAALALVRRLLAELEEAKAEGDQARALALLADAESEALLRVEELE
B19: GBRAP_11_2744 (protein)
chain: KKEKLEEIKKLAEELAKTLQQLIEEGVDNEELIKKAEELIKKLKELVKKYGDESLKKLAEIIAEDFEKAKADPETALQHWQNALAAARVLAGQVLLEIEE

GABARAP, O95166, sequence (O95166 whole entry, the tested form may be a part): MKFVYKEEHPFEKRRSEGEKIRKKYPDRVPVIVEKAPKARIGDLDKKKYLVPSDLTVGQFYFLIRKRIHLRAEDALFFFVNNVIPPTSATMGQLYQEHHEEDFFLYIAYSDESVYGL

This assay deals with GABARAP, O95166. The experiment in a line: median log2 fold change of GCK-ALFA target abundance (FLAG IP / Myc IP barcode read proportion) (log2 ratio); each designed protein is fused to an ALFA-tag nanobody in HEK293 cells to bring the named protein to FLAG-tagged glucokinase (GCK); Myc marks an untargeted standard; higher = target protein stabilised (more abundant). The settings on record: target protein: 3xFLAG-MCP-GCK-ALFA reporter; HEK293 landing pad (RPLP). The procedure, abridged:
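The readout is target abundance, the per-binder median log2 ratio of FLAG to Myc barcode read proportions. It came from HEK293 landing-pad cells carrying a recombined ALFA-nanobody-fused binder library, induced with 2 μg mL^−1 doxycycline and transfected with a plasmid for a FLAG-tagged target and a Myc-tagged standard. After 48 h, lysates were immunoprecipitated with anti-FLAG and anti-Myc, and circular RNA barcodes were reverse transcribed, amplified and sequenced. Each barcode needed a proportion of at least 10^−7 in both replicates and each binder at least 3 barcodes per replicate, a pseudocount of 10^−6 was added, and the replicates were pooled.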
In the case of B1, the “median log2 fold change” value is -0.4. Turning to B2, the “median log2 fold change” value came out at 0.132. The value for B3 was -0.0168; that for B4 was 0.27. As for B5, the “median log2 fold change” value was 0.261. With B6, the “median log2 fold change” value stood at 0.131. B7: the “median log2 fold change” value amounted to 0.257. B8: the “median log2 fold change” value turned out to be 0.0541. For B9, the “median log2 fold change” value stood at 0.212. B10: the “median log2 fold change” value was -0.00096. Consider B11, for which the “median log2 fold change” value stood at 0.11. B12: the “median log2 fold change” value is 0.0754. For B13, the “median log2 fold change” value was -0.181. As for B14, the “median log2 fold change” value worked out at 0.179. Regarding B15, the “median log2 fold change” value was -0.0463.

Consider B16, for which the “median log2 fold change” value was 0.196.

As for B17, the “median log2 fold change” value was 0.0453. For B18, the “median log2 fold change” value stood at 0.209. In the case of B19, the “median log2 fold change” value was found to be 0.387.

(Values after the supplement of paper PMC12632987.)
